Laboratory results from paper PMC8231349 (Journal of Enzyme Inhibition and Medicinal Chemistry, 2021).

Experiments:
[1] = system: human prostate cancer cells (DU145); test: MTT cell viability assay, DU145; assay type: cell-based; details: DU145 cells, 1, 10 and 50 μM, 72 h
Description: (§1) Experiments were performed on human prostate cancer cells (DU145; ATCC HTB-81), human lung cancer cells (A549; ATCC CCL-185-LUC2) and human bronchial epithelium cells (BEAS-2B; ATCC CRL-9609). Cells were grown in Dulbecco's modified Eagle's medium (DMEM) supplemented with 10% of heat-inactivated foetal bovine serum (FBS), 100 U/ml penicillin and 100 μg/ml streptomycin (Sigma-Aldrich, Steinheim, Germany). Cells were incubated at 37 °C in a humidified atmosphere with 5% CO2. […] Cells were seeded into 96-well plates at a density of 7,0 × 10[3] cells/well in 100 µl of culture medium. After 24 h, cells were treated with the compounds at three different concentrations (1 µM, 10 µM and 50 µM) for 72 h. Following treatments, 0.5 mg/ml of 3-[4,5-dimethylthiazol-2-yl]-2,5-diphenyltetrazolium bromide (MTT) (Sigma Aldrich) was added to each well and incubated for 4 h at 37 °C. Finally, DMSO was used to dissolve formazan salts and absorbance was measured at 570 nm in a microplate reader (Biotek Synergy-HT). […]
(§2) Compound 3 was preliminarily assessed for its cytotoxic activity towards human prostate and lung cancer cell lines (DU145 and A549, respectively), in which the overexpression of the HO-1 has been confirmed[46]^,[47]. […] Cell survival was calculated compared to untreated controls for 72 h. At the end of treatment, cell viability was evaluated using the MTT assay. […]

[2] = system: human lung cancer cells (A549); test: MTT cell viability assay, A549; assay type: cell-based; details: 72 h
Description: as §1, §2

[3] = system: esterase from the porcine liver; test: In vitro stability in porcine esterase solution (HPLC); assay type: in vitro ADME; set-up: half-life: dose or concentration left out as unconfirmed
Description: The HPLC analysis of samples at various time intervals from in vitro stability in different buffers and porcine esterase solution was performed on Shimadzu Prominence-i LC-2030C 3 D Plus equipped with RID20A. Detector chromatographic separation were carried out using Chromolith SpeedROD RP […], Merck. Spectra were analysed in 200–800 nm range with 1.2 nm resolution. The column was maintained at 30 °C and eluted under gradient conditions from 100% to 0% of eluent A over 3 min, at a flow rate of 5 ml min^−1. Eluent A: water/trifluoroacetic acid (0.1%, v/v); eluent B: acetonitrile/ trifluoroacetic acid (0.1%, v/v).
0.001 g of lyophilised powder of esterase from the porcine liver (Sigma-Aldrich, St. Louis, Missouri, USA) was reconstituted in 1.0 ml PBS buffer (0.01 M, pH 7.4) to make an aqueous porcine esterase solution (5 U/mL), and then pre-thermostated at 37 °C. To a test tube containing 1.85 ml of PBS buffer, 0.15 ml from the stock solution of the test compound was added. The mixture was then stirred and thermostated in a sand bath at 37 °C, and 1.0 ml of the porcine esterase solution was added to initiate the enzymatic reaction. For the negative control reaction, the volume of porcine esterase solution was replaced by phosphate buffer. Aliquots (0.3 ml) were withdrawn at 0, 30, 60, 120, 180, and 240 min, and quenched with cold acetonitrile (0.7 ml)[28]. The samples were centrifuged for 6 min at 10,000 rpm, and supernatants were analysed by HPLC to check the amounts (area under the curve, AUC) of the remaining intact compound. All the experiments were performed in triplicate. Pseudo-first-order rate constant for the hydrolysis was determined from the slope of linear plots of the natural logarithm (ln) of the AUC of the peak at time t (AUCt) against time. Half-life (t1/2) was calculated according to Equation (1): (1) t1/2 = ln 2/k were k is the pseudo-first-order rate constant.
Similarly, the parent compound 1 should be efficiently regenerated. Therefore, the enzymatic stability of 3 in porcine esterase solution was investigated.

O=C(CCC(=O)OC(Cn1ccnc1)c1cccc(Br)c1)OCn1cc(F)c(=O)[nH]c1=O (stereo not shown) [Compound 3, 1‐[1‐(3‐bromophenyl)‐2‐(1H‐imidazol‐1‐yl)ethyl]4‐(5‐fluoro‐2,4‐dioxo‐1,2,3,4‐tetrahydropyrimidin‐1‐yl)methyl butanedioate]
Effect on cell viability [1]: significant dose-dependent effect
melting point: 172 to 174.5 °C
Effect on cell viability ([2]; A549 cells, 1, 10 and 50 μM): significant dose-dependent effect
IC50 ([2]; Homo sapiens, A549 cells, MTT): 1450 ± 1040 nM
Detection of intact compound after incubation ([3]; 24 h incubation in porcine esterase solution): not detected
half-life ([3]; pig, porcine liver esterase solution, porcine esterase solution, PBS pH 7.4, 37 °C, read-out: Half-life (t1/2) of hydrolysis): 2.27 h
Pseudo-first-order rate constant k of hydrolysis ([3]; porcine esterase solution, PBS pH 7.4, 37 °C): 0.00507 min⁻¹
